From patent US20220125947A1 come the findings set out here.

The target of this assay is TCR Vδ2 (TRDV2) (human), A0JD36. The assay is described as follows: cell-based or functional assay.

B1: VG9B169 (antibody, human IgG1, lambda)
heavy: EVQLLESGPGLVKPSETLSLTCSVSGGSITNYFWNWIRQPPGKGLEWIGYIFYSGSTSYNPSLKSRVTISVDTSKNRFSLKLISVTAADTAVYYCARVGRWELRTAFDIWGQGTMVTVSS[human IgG1 constant region omitted here]
light: QSALTQPPSASGTPGQRVTIS[about 80 residues omitted here][about 120 residues omitted here]
For B1, the CD25+ (Vg9+ cells), flow staining turned out to be 30.3%; the CD71+ (Vg9+ cells), flow staining is 95.3%; the Vg9 T cell %, flow staining turned out to be 2%.
